Measured values as given in ChEMBL document CHEMBL1201862, “PubChem BioAssay data set” (2004).
Several values for one entry are separate records, joined by “and”; a condition that tells them apart may be missing. Equal entries are not always repeated. Structures can show the parent of a compound that is named as a salt.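 Protocol summary: plate cells (96-well), add compound at 5 concentrations, incubate 48 h, interpolate endpoints linearly. GI50 marks 50% less growth.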 Activity calls are given as the source filed them. No stated cut-off is given here; in the data, active = GI50 up to about 1.1 µM and inactive = higher.

The molecules below were run on NCI-H322M (assay: inhibition of tumour cell growth, NCI panel, 48 h).
For `C1CN(P2(N3CC3)=NP(N3CC3)(N3CC3)=NP(N3CC3)(N3CC3)=N2)CCO1` (stereo not drawn) [FOTRETAMINE], the GI50 was inactive: > 100 µM.
`CC1=C2C(=O)O[C@@H](c3ccoc3)[C@]2(C)CCC1` [FRAXINELLONE] was tested, and the GI50 was inactive: > 100 µM.
For `CC1=C2C(=O)O[C@@H](c3ccoc3)[C@]2(C)CCC1=O` [FRAXINELLONONE], the GI50 was inactive: > 100 µM.
For `Cc1cc(C(=C2C=CC(=N)C=C2)c2ccc(N)cc2)ccc1N` [FUCHSIN, BASIC], the GI50 was inactive: 4.41 µM.
`O=C(O)/C=C/C(=O)O` [FUMARIC ACID] was tested, and the GI50 was inactive: > 100 µM.
`COc1ccc2c3c([nH]c2c1)[C@H](C=C(C)C)N1C(=O)[C@@H]2CCCN2C(=O)[C@@H]1C3` [FUMITREMORGIN] was tested, and the GI50 was inactive: > 100 µM.
`N=C(N)c1ccc(-c2ccc(-c3ccc(C(=N)N)cc3)o2)cc1` [FURAMIDINE HYDROCHLORIDE] was tested, and the GI50 was inactive: 33.2 µM.
In the case of `CC(C)c1ccc(O)c(=O)cc1` [GAMMA-THUJAPLICIN], the GI50 is reported as inactive: 9.4 µM.
For `COc1cc(-c2cc(=O)c3c(O)c(OC)c(OC)c(OC)c3o2)cc(OC)c1OC` [GARDENIN], the GI50 was inactive: > 61.2 µM.
For `C/C(=C\COc1ccc2ccc(=O)oc2c1)C1=CC(=O)C(C)(C)O1` [GEIPARVARIN], the GI50 was inactive: 3.17 µM.
`C=C1C[C@]23C[C@@]1(O)CC[C@H]2[C@@]12C=C[C@H](O)[C@@](C)(C(=O)O1)[C@H]2[C@@H]3C(=O)O` [GIBBERELLIN A3] was tested, and the GI50 was inactive: > 100 µM.
For `CCCCCCCCCCCC/C=C\CC[C@@H](O)[C@H](O)CC[C@H](O)[C@@H]1CC[C@@H](CCCCCCCC2=C[C@H](C)OC2=O)O1` [GIGANTRIONENIN], the GI50 was inactive: 15.2 µM.
For `CC(C)=CCC[C@](C)(O[C@@H]1O[C@H](CO)[C@@H](O)[C@H](O)[C@H]1O)[C@H]1CC[C@]2(C)[C@@H]1[C@H](O)C[C@@H]1[C@@]3(C)CC[C@H](O)C(C)(C)[C@@H]3[C@@H](O[C@@H]3O[C@H](CO)[C@@H](O)[C@H](O)[C@H]3O)C[C@]12C` [GINSENOSIDE RG1], the GI50 was inactive: > 100 µM.
In the case of `CC[C@](C)(O)C(=O)O[C@H]1C(=O)O[C@@H]2C[C@H]3C(C)=CC(=O)[C@@H](O)[C@]3(C)[C@H]3[C@@]4(O)OC[C@]32[C@@H]1[C@@H](C)[C@H]4O` [GLAUCARUBINONE], the GI50 is reported as inactive: 2.12 µM.
In the case of `COc1cc2c3c(c1O)C1(C=CC(=O)C=C1)CC3N(C)CC2` (stereo not drawn) [GLAZIOVINE], the GI50 is reported as inactive: 9.86 µM.
With `CCCCCCCCCCCC(=O)OCC(O)CO` (stereo not drawn) [GLYCEROL MONOLAURATE] the GI50 was inactive: > 100 µM.
For `O=C(NC1CCCCC1)NS(=O)(=O)c1ccc2c(c1)CCC2` [GLYHEXAMIDE], the GI50 was inactive: > 100 µM.
For `O=C(O)CNCP(=O)(O)O` [GLYPHOSATE], the GI50 was inactive: > 100 µM.
In the case of `COc1cc2c(c(O)c1OC)-c1c(cc(OC)c(OC)c1OC)CC(C)C(C)C2` (stereo not drawn) [GOMISIN K3], the GI50 is reported as inactive: > 100 µM.
In the case of `Cc1nccc2c1[nH]c1cc(O)ccc12` [HARMOL HYDROCHLORIDE], the GI50 is reported as inactive: 42.1 µM.
For `C=C1C(=O)O[C@@H]2C[C@@H](C)[C@@H]3C=CC(=O)[C@@]3(C)[C@@H](O)[C@H]12` [HELENALIN], the GI50 was inactive: 2.33 µM.
For `C[C@@H]1O[C@@H](O[C@H]2CC[C@]3(C=O)[C@H]4CC[C@]5(C)[C@@H](c6ccc(=O)oc6)CC[C@]5(O)[C@@H]4CC[C@]3(O)C2)[C@H](O)[C@H](O)[C@H]1O[C@@H]1O[C@H](CO)[C@@H](O)[C@H](O)[C@H]1O` [HELLEBRIN], the GI50 was active: 0.0118 µM.
For `CNc1nc(OC)c2c(n1)n(C)c[n+]2C` [HETEROMINE B], the GI50 was inactive: > 100 µM.
`COc1ccc(-c2oc3cc(OC)c(OC)c(OC)c3c(=O)c2OC)cc1OC` [HEXAMETHOXYFLAVONE] was tested, and the GI50 was inactive: > 100 µM.
`CCCCCCc1ccc(O)cc1O` [HEXYLRESORCINOL] was tested, and the GI50 was inactive: > 100 µM.
`CC(C)c1cccc(=O)c(O)c1` [HINOKITIOL] was tested, and the GI50 was inactive: 11.9 µM.
In the case of `COc1c(O)cc2oc(-c3ccc(O)cc3)cc(=O)c2c1O` [HISPIDULIN], the GI50 is reported as inactive: 49.1 µM.
With `CCN(CC)CCNc1ccc(CO)c2sc3ccccc3c(=O)c12` [HYCANTHONE MESYLATE] the GI50 was inactive: 11 µM.
With `O=C1CNC(=O)N1` [HYDANTOIN] the GI50 was inactive: > 1120 µM.
`C[C@]12CCC(=O)C=C1CC[C@@H]1[C@@H]2[C@@H](O)C[C@@]2(C)[C@H]1CC[C@]2(O)C(=O)COC(=O)CCC1CCCC1` [HYDROCORTISONE CYPIONATE] was tested, and the GI50 was inactive: > 100 µM.
With `Cn1c2c3ccccc3nc-2c(O)c2ccccc21` [HYDROXYCRYPTOLEPINE] the GI50 was inactive: 84.7 µM.
In the case of `CC1=C2C(=C[C@@](C)(CO)[C@@H]2O)C(=O)[C@](C)(O)C12CC2` [ILLUDIN], the GI50 is reported as active: 0.0194 µM.
`CCCCCCCCCCCCCCCCSCC(COC)COP(=O)([O-])OCC[N+](C)(C)C` (stereo not drawn) [ILMOFOSINE] was tested, and the GI50 was inactive: 15.3 µM.
In the case of `Cn1cc(C[C@@H](N)C(=O)O)c2ccccc21` [INDOXIMOD], the GI50 is reported as inactive: > 100 µM.
`CCCCCC/C=C\CCCCCCCCCC1=CC(=O)C=C(OC)C1=O` [IRISQUINONE A] was tested, and the GI50 was inactive: 6.92 µM.
For `CC1=C(CO)C2=C(C)C3(CC3)[C@@](C)(O)C(=O)C2=C1` [IROFULVEN], the GI50 was active: 0.226 µM.
`Cc1cc(O)c2c(c1O)C(=O)c1cccc(O)c1C2=O` [ISLANDICIN] was tested, and the GI50 was inactive: > 100 µM.
With `CC(C)C(N)=O` [ISOBUTYRAMIDE] the GI50 was inactive: > 5000 µM.
`O=C1Nc2ccccc2/C1=C1\C(=O)Nc2ccccc21` [ISOINDIGO] was tested, and the GI50 was inactive: 36.5 µM.
For `Nc1nc2[nH]c(=O)cnc2c(=O)[nH]1` [ISOXANTHOPTERIN], the GI50 was inactive: > 125 µM.
For `CC1=C(CO)C(=O)O[C@@H]([C@@H](C)[C@H]2CC[C@H]3[C@@H]4C[C@@H](O)[C@@]5(O)CC=CC(=O)[C@]5(C)[C@H]4CC[C@]23C)C1` [JABOROSALACTONE D], the GI50 was inactive: 36.4 µM.
For `COC(=O)CC1(O)C=CC(=O)C=C1` [JACARANONE], the GI50 was inactive: 15.5 µM.
With `CC1=C2C(=O)[C@H]3[C@@H](CC=C4C[C@@H](O)CC[C@@]43C)[C@@H]2CC[C@]12O[C@@H]1C[C@H](C)CN[C@H]1[C@H]2C` [JERVINE] the GI50 was inactive: > 43.4 µM.
For `CC1=C2O[C@]3(O)C=C2C(=C(O)C1=O)[C@@H]1O[C@H](CC[C@H](C)/C=C(\C)C[C@@H](C)C[C@@H]3C)[C@H](C)[C@H](O)[C@H]1C` [KENDOMYCIN], the GI50 was inactive: 1.3 µM.
With `CC(=O)N1CCN(c2ccc(OCC3COC(Cn4ccnc4)(c4ccc(Cl)cc4Cl)O3)cc2)CC1` (stereo not drawn) [KETOCONAZOLE] the GI50 was inactive: 45 µM.
`COc1ccc(N)c(C(=O)CCNC(C)=O)c1` [KINURENAMINE] was tested, and the GI50 was inactive: > 100 µM.
In the case of `O=C1c2scnc2-c2nccc3c2c1nc1ccccc13` [KUANONIAMINE A], the GI50 is reported as inactive: 1.41 µM.
For `CCC(=O)NCCc1c2c3c(ccnc3c3ncsc13)-c1ccccc1N2` [KUANONIAMINE C], the GI50 was inactive: 1.37 µM.
For `C=C(C)[C@H]1CC23C(=O)C(C(=O)C(C)C)=C(O)[C@](C)(C[C@H]2C1(C)C)C3=O` [LALIBINONE B], the GI50 was inactive: 19.5 µM.
In the case of `CC(=O)O[C@H]1C[C@H](O[C@H]2[C@@H](O)C[C@H](O[C@H]3[C@@H](O)C[C@H](O[C@H]4CC[C@@]5(C)[C@H](CC[C@@H]6[C@@H]5C[C@@H](O)[C@]5(C)[C@@H](C7=CC(=O)OC7)CC[C@]65O)C4)O[C@@H]3C)O[C@@H]2C)O[C@H](C)[C@H]1O[C@@H]1O[C@H](CO)[C@@H](O)[C@H](O)[C@H]1O` [LANATOSIDE C], the GI50 is reported as active: 0.0532 µM.
In the case of `CC[C@@H](C(=O)[C@@H](C)[C@@H](O)[C@H](C)CCc1ccc(C)c(O)c1C(=O)O)[C@H]1O[C@](CC)([C@H]2CC[C@](O)(CC)[C@H](C)O2)C[C@@H]1C` [LASALOCID A SODIUM], the GI50 is reported as inactive: 2.19 µM.
In the case of `C/C1=C/C(=O)O[C@@H]2C[C@@H](CC[C@H](C)/C=C\C=C\CC1)O[C@@](O)([C@@H]1CSC(=O)N1)C2` [LATRUNCULIN A], the GI50 is reported as inactive: 3.37 µM.
With `O=C(O)c1cc(N(Cc2ccccc2O)Cc2cc(O)ccc2O)ccc1O` [LAVENDUSTIN A] the GI50 was inactive: > 100 µM.
With `O=C(O)c1cc(NCc2cc(O)ccc2O)ccc1O` [LAVENDUSTIN C] the GI50 was inactive: > 100 µM.
In the case of `O=C(O)CCCCC1CCSS1` (stereo not drawn) [LIPOIC ACID, ALPHA], the GI50 is reported as inactive: > 100 µM.
`O=C1c2ccccc2-c2c3c(cc4ccnc1c24)OCO3` [LIRIODENINE] was tested, and the GI50 was inactive: 6.01 µM and inactive: 11.2 µM.
For `O=C1O/C(=C\C=C\CO)C=C1/C=C/CO` [LISSOCLINOLIDE], the GI50 was inactive: 31.2 µM.
With `O=NN(CCCl)C(=O)NC1CCCCC1` [LOMUSTINE] the GI50 was inactive: 83.4 µM.
For `COc1c2c(c(CC=C(C)C)c3oc(=O)c(-c4ccc(O)cc4)c(O)c13)OC(C)(C)C=C2` [LONCHOCARPIC ACID], the GI50 was inactive: 27.2 µM.
With `CCOC(=O)N1CCC(=C2c3ccc(Cl)cc3CCc3cccnc32)CC1` [LORATADINE] the GI50 was inactive: 11.1 µM.
With `O=C1c2c(O)cccc2-c2nn(CCNCCO)c3ccc(NCCNCCO)c1c23` [LOSOXANTRONE HYDROCHLORIDE] the GI50 was active: 0.443 µM.
With `C=C1C(=O)[C@]23C[C@H]1C[C@@H](O)[C@H]2[C@]1(COC3=O)[C@@H](OC(C)=O)CC[C@@](C)(COC(C)=O)[C@H]1C=O` [LOXOTHYRIN A] the GI50 was inactive: > 50 µM.
`CCN(CC)CCNc1ccc(C)c2sc3ccccc3c(=O)c12` [LUCANTHONE HYDROCHLORIDE] was tested, and the GI50 was inactive: 2.79 µM.
`C=C(C)[C@@H]1CC[C@]2(C)CC[C@]3(C)[C@H](CC[C@@H]4[C@@]5(C)CC[C@H](O)C(C)(C)[C@@H]5CC[C@]43C)[C@@H]12` [LUPEOL] was tested, and the GI50 was inactive: > 100 µM.
With `O=c1cc(N2CCOCC2)oc2c(-c3ccccc3)cccc12` [LY-294002] the GI50 was inactive: 12.7 µM.
In the case of `Cc1occc(=O)c1O` [MALTOL], the GI50 is reported as inactive: > 100 µM.
In the case of `CC(C)=CCC/C(C)=C/Cc1cc(/C=C/c2cc(O)c(CC=C(C)C)c(O)c2)cc(O)c1O` [MAPPAIN], the GI50 is reported as inactive: 11.2 µM.
For `C=C1C(=O)[C@]23[C@H](O)[C@H]1CC[C@H]2[C@@]12CO[C@@]3(O)C[C@@H]1C(C)(C)CC[C@@H]2O` [MEGATHYRIN A], the GI50 was inactive: 9.91 µM.
